Results on 60 compounds are retold here after PubChem BioAssay (NCI).

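How tested: cells in 96-well plates exposed to compound for 48 hours at five concentrations. The concentration for 50% growth inhibition is given as GI50. TGI denotes the concentration required for complete inhibition of growth.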

For the experiment, the system named is NCI-H322M lung. The experiment can be described thus: DTP human tumour cell line panel, 48 h.
`COc1ccc2c(c1)CCC1C3(CCCC21C)OCCO3` (stereo not drawn) yielded a concentration for total growth inhibition (TGI) of 59.3 µM.
Still for that read-out and setting: the figure for `CC(C)C[C@H]1[C@@H](OCc2ccccc2)COS(=O)(=O)N1[C@H](C)c1ccccc1` is greater than 100 µM; for `O=C(O)c1cccc(Nc2c(C(=O)O)cccc2[N+](=O)[O-])c1` it is greater than 100 µM; for `COc1cc2c(cc1C)NC(=O)/C2=C/c1cccnc1` it is 41 µM.
The compound `Cc1ccc(Nc2nc3c(s2)C(=O)c2ccccc2C3=O)c(C)c1` yielded a TGI of 27.9 µM.
`O=C(Nc1ccc(Cl)cc1)c1cc(S(=O)(=O)Nc2n[nH]c(Nc3ccc4ccccc4c3)n2)c(SSc2cc(Cl)c(C(=O)Nc3ccc(Cl)cc3)cc2S(=O)(=O)Nc2n[nH]c(Nc3ccc4ccccc4c3)n2)cc1Cl` returned a TGI of 76.9 µM.
For the compound `CCN(CCCl)c1cc(CN(C)C)cc(NC(=O)c2ccc(C(=O)Nc3cc(CN(C)C)cc(N(CC)CCCl)c3)cc2)c1`, the TGI stood at 4.26 µM.
`COc1cc(NC(=O)c2cc(O)c(CC=C(C)C)c(O)c2)cc2c1O[C@]1(C)CC[C@@H](O)C(C)(C)[C@H]1C2`: the GI50 is 11.7 µM and the TGI is 47.9 µM.
For the compound `O=C1c2c(Br)sc(Br)c2C(NC(=O)C(F)(F)F)C1O` (stereo not drawn), the TGI came to 42.2 µM.
On the same count and under the same terms, the figure for `COC(=O)C1C2OC(C)(C)OC2CN1S(=O)(=O)c1ccc(C)cc1` (stereo not drawn) is greater than 100 µM; for `Cc1cc(SCC(=O)c2ccccc2)nc2ccccc12` it is greater than 100 µM; for `Cc1cc(C)nc(NS(=O)(=O)c2ccc(Nc3c4ccccc4nc4c(C(=O)Nc5ccc(S(=O)(=O)Nc6cc(C)on6)cc5)cccc34)cc2)n1` it is 59.3 µM.
Same read-out and setting: the same measure for `CCCCCCCC(CC(=O)NC(CO)C(=O)NC(CO)CC(C)C)OC(=O)CC(CCCCCCC)OC(=O)CC(CCCCCCC)OC1OC(C)C(O)C(OC2OC(C)C(O)C(OC(C)=O)C2O)C1O` (stereo not drawn): 26.5 µM.
In turn, `C/C(Cl)=N/OC(=O)Nc1ccc(F)c([N+](=O)[O-])c1` showed a TGI of 49.4 µM.
Compound `O=C1C2=Cc3ccccc3CCN2c2ccccc21` gave a TGI greater than 100 µM.
Still for that read-out and setting: the figure for `Cc1ccc(N(C(=O)CC(=O)NN)C(=O)c2ccccc2Cl)cc1` is greater than 100 µM; for `COC(=O)C1=CC2C(=O)c3ccccc3C1(c1ccccc1)N2C1CCCCC1` (stereo not drawn) it is greater than 100 µM.
Still for that read-out and setting: the figure for `COc1cc(OC(=O)c2c(O)cc(O)c(O)c2C)cc(C)c1C(=O)Oc1cc(C)c(C(=O)O)c(O)c1` is greater than 100 µM.
Turning to `O=C(CC(O)(C(F)(F)F)C(F)(F)F)C(c1ccccc1)C(O)(C(F)(F)F)C(F)(F)F` (stereo not drawn), the TGI was greater than 100 µM.
`C=CCCCCCCCCC(=O)NS(=O)(=O)c1ccccc1` displayed a TGI greater than 100 µM.
As for `CCN(CC)c1sc(N(CC)CC)c2c1SSSSS2`, the GI50 was 2.09 µM and the TGI was determined as 4.15 µM.
In the case of `CCOC(=O)c1c(CN2CCN(c3ccccc3)CC2)n(-c2ccccc2)c2cc(Br)c(O)cc12`, the GI50 was 23.4 µM and the TGI was 69.9 µM.
Consider `Cc1ccc2nc3c(C(=O)NCCN(C)C)cccc3nc2c1`, for which the TGI was 21.1 µM.
On to `COc1ccc(C(=O)c2cc(C)c(OC)c(C)c2)c(OC)c1N(C(=O)C(Cl)Cl)C(=O)C(Cl)Cl`, for which the GI50 is 0.0625 µM and the TGI is greater than 100 µM.
`NC(N)=NCCCn1c2c(c3ccccc3c1=O)C(=O)c1ccccc1-2`: the GI50 was 27.5 µM and the concentration for total growth inhibition (TGI) came to 97.3 µM.
Take `O=C1c2ccccc2C(=O)C2NC(CCCCCSSCCCCCC3=NC4C(=O)c5ccccc5C(=O)C4N3)=NC12` (stereo not drawn): the TGI was greater than 100 µM.
On the same count and under the same terms, the figure for `C[N+](C)(C)CC1CCCC(C[N+](C)(C)C)C1=O` (stereo not drawn) is 32 µM; for `COC(=O)c1cc(Br)c(Br)n1C` it is greater than 100 µM.
For `Cc1cn2c(/C=C3/C(=O)N(C)c4ccccc43)c(C)nc2s1`, the GI50 is 63.7 µM and the TGI was greater than 100 µM.
Take `CC(=O)C(C(=O)c1ccc(C)cc1)[C@@H]1OC(C)(C)O[C@@H]1[C@H]1COC(C)(C)O1` (stereo partly drawn): the TGI turned out to be 65.7 µM.
On to `CC(=O)OC1Oc2ccccc2-c2oc(=O)c(-c3cc4ccc(N(C)C)cc4oc3=O)cc21` (stereo not drawn), for which the GI50 is 13.6 µM and the TGI came out at 41 µM.
The compound `CC1=NN(c2cccc(S(=O)(=O)O)c2)C2(C1)C(Cl)C(=O)N2c1nc2ccccc2s1` (stereo not drawn) had a TGI of 26.6 µM.
Compound `Cc1c(N=Nc2ccccc2)c(-c2ccccc2)n(C2OC(CO)C(O)C(O)C2O)c(=S)c1C#N` (stereo not drawn) displayed a TGI of 16.8 µM.
For `O=c1[nH]c2cccc([N+](=O)[O-])c2c(=O)n1-c1ccc(Cl)cc1`, the TGI stood at 33.9 µM.
Still for that read-out and setting: the same measure for `NC(=O)NC1NC(=O)NC1=O` (stereo not drawn): greater than 100 µM.
With `COC(=O)c1cccc2cccc(C(=O)Nc3ccc(C)cc3C)c12`, the TGI is greater than 100 µM.
On the same count and under the same terms, the figure for `CC1=C2C(=O)O[C@@H](c3ccoc3)[C@]2(C)CCC1` is greater than 100 µM; for `Cc1ccc2c(c1)C(=O)C1(C2)Cc2c(C)cccc2C1=O` (stereo not drawn) it is greater than 100 µM.
`C1=C(CC2=C[P+](c3ccccc3)(c3ccccc3)C=C(c3ccccc3)O2)OC(c2ccccc2)=C[P+]1(c1ccccc1)c1ccccc1` gave a TGI of 1.88 µM.
For the compound `CCCCCCCCCCCCCCCCP(=O)(O)OCC(N)C(=O)O` (stereo not drawn), the TGI was determined as 41.2 µM.
In the case of `COc1cc(C2=NN(C(C)=O)C(c3ccc(OC(C)=O)cc3OC(C)=O)O2)c(OC(C)=O)c2ccccc12` (stereo not drawn), the GI50 was 0.546 µM and the TGI came to 35.5 µM.
With `CCSc1nnc(Sc2c3ccccc3nc3ccccc23)s1`, the TGI was found to be 43.8 µM.
Take `COc1cc[nH]c1/C=C1\C(=O)Nc2ccccc21`: the GI50 was 9.71 µM and the TGI is greater than 25 µM.
`CC(C)(C)OC(=O)Cc1ccc2c(ccn2Cc2ccccc2)c1` had a TGI greater than 100 µM.
For the compound `CN1CCC23c4c5ccc(Oc6nnnn6-c6ccccc6)c4OC2c2[nH]c4ccccc4c2CC3(O)C1C5` (stereo not drawn), the TGI came out at 19.2 µM.
`CC[O-].CC[O-].O=C1c2ccccc2C(=O)c2c(O)ccc([O-])c21.O=C1c2ccccc2C(=O)c2c(O)ccc([O-])c21.[Ti+4]` yielded a TGI greater than 100 µM.
On the same count and under the same terms, the same measure for `Nc1cc(Cl)cc2cc(Cl)cnc12`: greater than 100 µM; for `O=C1CC(Br)c2c(Br)sc(Br)c21` (stereo not drawn): greater than 100 µM.
The same measure, in the same setting: the figure for `CC[C@]12C=CCN3CC[C@@]4(c5cc(Br)c(OC)c([N+](=O)[O-])c5N(C)[C@H]4[C@@](O)(C(=O)OC)[C@@H]1OC(C)=O)[C@@H]32` is greater than 100 µM; for `Nc1ccc(/C=C/c2ccnc3ccccc23)cc1` it is greater than 100 µM.
The compound `O=C(O)CP(=S)(S)c1ccccc1` (stereo not drawn) came in with a TGI greater than 100 µM.
Still for that read-out and setting: the same measure for `O=[N+]([O-])/C(C(Cl)=C(Cl)Cl)=C1\Nc2ccc([N+](=O)[O-])cc2N1`: greater than 100 µM.
Consider `Cc1ccc(C(=NN=C(N)N)c2ccc(C)cc2)cc1`, for which the GI50 is 0.548 µM and the TGI was 15 µM.
Taken in the same sequence, the figures for `CCN(CC)CCN1CC(O)=C(c2nc(-c3ccc(Cl)cc3)cs2)C1=N` were 1.91 µM and 4.35 µM.
`CCC(C)C(=O)OC1C(=O)OC2CC3C(C)=CC(=O)C(O)C3(C)C3C4(O)OCC23C1C(C)C4O` (stereo not drawn) yielded a concentration for total growth inhibition (TGI) of 3.22 µM.
For `COC(=O)Nc1nc2ccc(Oc3ccc(NC(=O)Nc4ccccc4)cc3)cc2[nH]1`, the GI50 is 0.812 µM and the TGI was greater than 15.5 µM.
As to `CC(NC(=O)OCc1ccccc1)NC(=O)OC(C)(C)C` (stereo not drawn), the TGI is greater than 100 µM.
`O=C(O)CN(c1ccccc1)S(=O)(=O)c1ccccc1[N+](=O)[O-]` registered a TGI greater than 100 µM.
Consider `Cc1sc2nc(N(C)C)oc(=O)c2c1C`, for which the concentration for total growth inhibition (TGI) was greater than 100 µM.
As to `CCOC(=O)Sc1ncnc2nc[nH]c12`, the GI50 is 4.86 µM and the TGI was greater than 100 µM.
